Columns and labels:
[1] = system: Human bronchial epithelial (HBE) cells; assay: IL-13-driven goblet cell metaplasia in ALI cultures; type: cell-based; details: ALI cultures (results not shown)
Experimental: Human bronchial epithelial (HBE) cells and culture media were obtained from Lonza. Air-liquid interface cultures using passage 2 (P2) cells were performed as previously described (Danahay, H. et al., American journal of physiology. Lung cellular and molecular physiology 282, L226-236 (2002)). For three-dimensional culturing of HBE cells, P1 cells were trypsinized and resuspended (30,000 cells/ml) in HBE differentiation media containing 5% growth factor-reduced Matrigel (BD Biosciences). 20 μl of suspension was plated in each well of a 384-well plate (Greiner) pre-coated with 10 μl of a 25% solution of Matrigel (BD Biosciences) in HBE differentiation media. […] Three-dimensional cultures were analyzed at the time points indicated.
Immunofluorescence of HBEC bronchospheres was performed as described previously for MCF10A cysts (Debnath, J. et al., Methods 30, 256-268 (2003) with the following modifications. After incubation with fluorescence-conjugated secondary antibodies, DNA was stained with a 1:1 mix of PBS and ProLong gold antifade containing DAPI. Confocal microscopy was performed at room temperature on a microscope (Zeiss LSM510 Meta) using an EC Plan-Neofluar 10×/0.30 dry objective (Zeiss), an EC Plan-Neofluor 20×/0.5 dry objective (Zeiss), a C-Apochromat 40×/1.2 W corr (Zeiss), or a C-Apochromat 63×/1.2 W Corr objective (Zeiss). […]

[2] = system: IL-13 driven goblet cell metaplasia; assay: IL-13 mouse model, co-administration of anti-Notch2 antibodies; type: in vivo
Experimental: RNA was isolated from 3D bronchosphere cultures with Trizol (Invitrogen), using manufacturer's specifications. To isolate RNA from mouse tissue, approximately 20 mg of tissue was placed in a 1.5 ml eppendorf tube with 1 ml of Buffer RLT Plus (Qiagen). A 5 mm stainless steel bead (Qiagen) was added to the tube, and the tissue was sheared using a Tissue Lyser II (Qiagen). RNA from the sheared tissue was purified using the RNeasy Plus Mini Kit (Qiagen), using manufacturer's specifications. TaqMan Reverse Trascription Reagents (Invitrogen) were used to generate cDNA from 1 μg of total RNA. Quantitative PCR was performed on a ViiA7 Real-Time PCR System (Applied Biosystems), using 40 ng of cDNA per reaction with the following Taqman probes (Applied Biosystems): MUC5AC, Hs01365601_m1; MUC5B, Hs00861588_m1; FOXA3, Hs00270130_m1; FOXJ1, Hs00230964_m1; DNAI2, Hs01001544_m1; TP63, Hs00978340_m1; ITGA6, Hs01041011_m1; GAPDH, Hs99999905_m1; Muc5ac, Mm012718_m1; Foxj1, Mm012367279_m1; Trp63, Mm00495788_m1; Gapdh, Mm99999915_g1.
Female Balb/c mice (20-25 g) were obtained from Charles River (Morgate, UK). Mice were housed under specific pathogen free conditions and were provided with food and water ad libitum. Experiments were performed in accordance with the UK Animals Scientific Procedures Act 1986.
Mice received 0.5 μg of recombinant mouse IL-13 (Ebiosciences, UK) or phosphate-buffered saline (PBS) intranasally on 3 consecutive (days 1, 2, 3). Mice received either 20 mg/kg neutralizing antibody against Notch2 (α-N2 D3 or α-N2 59R5) or control IgG, or PBS intraperitoneally 2 hours before intranasal challenge with either IL-13 or PBS, on days 1 and 3 only. Mice were euthanized 24 hours after the final IL-13 administration. The left lungs were excised, inflated with 10% neutral buffered formalin (NBF) and preserved in NBF. Lungs were embedded in paraffin wax and lung sections were obtained for each animal. Sections were stained with Periodic Acid-Schiff (PAS) stain for mucus.
PAS positive staining was quantified in lung sections using Definiens Image Analysis software. Two distinct lung sections were analyzed per mouse and the total area of PAS positive staining within the sections was determined. The PAS positive staining was normalized to the area of tissue analyzed and represented as ‘Relative Area PAS Positive Mucus (%)’.
Data are expressed as mean±SEM. Statistical significance was determined using a parametric one way ANOVA and Dunnetts post-test. GraphPad Prism (version 5.04) was used to generate graphs and perform statistical analysis. ***p<0.001 denotes statistically significant difference from relevant isotype control group.

B1: D3: anti-Notch2 antagonist IgG1 antibody, heavy chain SEQ ID NO: 3 (N-terminal glutamine), light chain SEQ ID NO: 4; sole antibody in therapeutic models (antibody)
heavy: QVQLVESGGGLVQPGGSLRLSCAAGYTFSSYGMSWVRQAPGKGLEWVSYIYPYSGATYYADSVKGRFTISADTSKNTAYLQMNSLRAEDTAVYYCARHSGYYRISSAMDVWGQGTLVTVSSASTKGPSVFPLAPSSKSTSGGTAALGCLVKDYFPEPVTVSWNSGALTSGVHTFPAVLQSSGLYSLSSVVTVPSSSLGTQTYICNVNHKPSNTKVDKRV[not shown - human IgG1 Fc]
light: DIQMTQSPSSLSASVGDRVTITCRASQNIKRFLAWYQQKPGKAPKLLIYGASTRESGVPSRFSGSGSGTDFTLTISSLQPEDFATYYCQQYYRSPHTFGQGTKVEIKRTVAAPSVFIFPPSDEQLKSGTASVVCLLNNFYPREAKVQWKVDNALQSGNSQESVTEQDSKDSTYSLSSTLTLSKADYEKHKVYACEVTHQGLSSPVTKSFNRGEC
modifications: Synthetic human sequence
IL-13-driven goblet cell metaplasia [1]: completely inhibited
effect on basal cell marker Trp63, qPCR of whole lung tissue ([2]; 20 mg/kg i.p. days 1 and 3, FIG. 6e): no effect
ciliated cell marker Foxj1, qPCR of whole lung tissue ([2]; 20 mg/kg i.p. days 1 and 3, FIG. 6d): concomitant increase
Muc5ac expression levels, qPCR of whole lung tissue RNA ([2]; 20 mg/kg i.p. days 1 and 3, confirms reduced goblet cell metaplasia, FIG. 6c): verified this observation
IL-13 driven goblet cell metaplasia (PAS staining of lung sections) ([2]; Balb/c mice, 20 mg/kg antibody i.p. 2 hours before intranasal IL-13, days 1 and 3, FIGS. 6a, 6b): completely blocked

Reference: patent US9944700B2, “Notch2 binding molecules for treating respiratory diseases” (NOVARTIS AG, priority 2013, dated 2018)
